Laboratory results as given in the supplement of paper PMC4967469.
A lower IC50 marks a more sensitive line; a limit (>, <) means that the fit lies beyond the doses tested. AUC is the area under the same curve over the 256-fold range up to the top dose, as a fraction; the more sensitive the line, the further below 1. Where the top dose is marked as inferred, it was calculated from the reported fits.

Compound: N.N.[Cl][Pt][Cl] [Cisplatin]
Experiment: Viability of human cancer cell lines after 72 h of drug (GDSC screen)
Details: top dose inferred
Description: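 Human cancer cell lines in 384-well plates, medium with 10% serum, drug for 72 h over a 256-fold dose range (nine 2-fold or five 4-fold steps up to the top dose). Adherent lines were fixed and stained with the nucleic acid dye Syto60, suspension lines read with resazurin; signal relative to control wells, capped at 0 and 100%. One two-parameter sigmoid per drug and line, fitted in a mixed model over all curves with the slope shared within a line.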

Cell Line | AUC | IC50 [µM]
G-402 (soft tissue, adherent, top dose 10 µM) | 0.768 | 5
G-MEL (melanoma, adherent, top dose 10 µM) | 0.662 | 1.75
GA-10 (Burkitt lymphoma, suspension, top dose 10 µM) | 0.947 | > 10
GAK (melanoma, adherent, top dose 10 µM) | 0.989 | > 10
GB-1 (glioma, adherent, top dose 10 µM) | 0.671 | 2.05
GCIY (stomach, adherent, top dose 10 µM) | 0.922 | > 10
GDM-1 (acute myeloid leukaemia, suspension, top dose 10 µM) | 0.98 | > 10
GI-1 (glioma, adherent, top dose 10 µM) | 0.679 | 1.93
GI-ME-N (neuroblastoma, adherent, top dose 10 µM) | 0.869 | > 10
GMS-10 (glioma, adherent, top dose 10 µM) | 0.901 | > 10
GOTO (neuroblastoma, adherent, top dose 10 µM) | 0.676 | 2.09
GR-ST (lymphoblastic leukaemia, suspension, top dose 10 µM) | 0.83 | 8.21
GRANTA-519 (B-cell lymphoma, suspension, top dose 10 µM) | 0.897 | > 10
GT3TKB (stomach, adherent, top dose 10 µM) | 0.847 | 6.07
H4 (glioma, adherent, top dose 10 µM) | 0.799 | 4.71
H9 (lymphoid neoplasm, suspension, top dose 10 µM) | 0.903 | 9.09
H290 (mesothelioma, adherent, top dose 10 µM) | 0.832 | 5.64
H513 (mesothelioma, semi-adherent, top dose 10 µM) | 0.865 | > 10
H2369 (mesothelioma, adherent, top dose 10 µM) | 0.788 | 4.55
H2373 (mesothelioma, adherent, top dose 10 µM) | 0.961 | > 10
H2461 (mesothelioma, adherent, top dose 10 µM) | 0.942 | > 10

Cell Line | AUC | IC50 [µM]
H2595 (mesothelioma, adherent, top dose 10 µM) | 0.928 | > 10
H2722 (mesothelioma, adherent, top dose 10 µM) | 0.899 | > 10
H2731 (mesothelioma, adherent, top dose 10 µM) | 0.904 | > 10
H2795 (mesothelioma, adherent, top dose 10 µM) | 0.93 | > 10
H2869 (mesothelioma, adherent, top dose 10 µM) | 0.925 | > 10
H3118 (head and neck, adherent, top dose 10 µM) | 0.886 | > 10
H3255 (lung adenocarcinoma, adherent, top dose 10 µM) | 0.957 | > 10
HA7-RCC (kidney, adherent, top dose 10 µM) | 0.855 | 9.31
HAL-01 (lymphoblastic leukaemia, suspension, top dose 10 µM) | 0.849 | 6.19
HARA (lung squamous cell carcinoma, adherent, top dose 10 µM) | 0.893 | > 10
HC-1 (hairy cell leukaemia, suspension, top dose 10 µM) | 0.968 | > 10
HCC38 (breast, adherent, top dose 10 µM) | 0.971 | > 10
HCC70 (breast, adherent, top dose 10 µM) | 0.878 | 9.86
HCC202 (breast, adherent, top dose 10 µM) | 0.91 | > 10
HCC1143 (breast, adherent, top dose 10 µM) | 0.932 | > 10
HCC1187 (breast, suspension, top dose 10 µM) | 0.897 | > 10
HCC1395 (breast, adherent, top dose 10 µM) | 0.85 | > 10
HCC1419 (breast, adherent, top dose 10 µM) | 0.807 | 8.02
HCC1428 (breast, adherent, top dose 10 µM) | 0.987 | > 10
HCC1500 (breast, adherent, top dose 10 µM) | 0.987 | > 10
HCC1569 (breast, adherent, top dose 10 µM) | 0.969 | > 10

Cell Line | AUC | IC50 [µM]
HCC1937 (breast, adherent, top dose 10 µM) | 0.91 | > 10
HCC1954 (breast, adherent, top dose 10 µM) | 0.961 | > 10
HCC2157 (breast, suspension, top dose 10 µM) | 0.936 | > 10
HCC2218 (breast, suspension, top dose 10 µM) | 0.975 | > 10
HCC2998 (large intestine, adherent, top dose 10 µM) | 0.915 | > 10
HCC-15 (lung squamous cell carcinoma, adherent, top dose 10 µM) | 0.943 | > 10
HCC-44 (lung adenocarcinoma, adherent, top dose 10 µM) | 0.719 | 2.56
HCC-56 (large intestine, adherent, top dose 10 µM) | 0.966 | > 10
HCC-78 (lung adenocarcinoma, adherent, top dose 10 µM) | 0.915 | > 10
HCC-366 (non-small cell lung carcinoma, adherent, top dose 10 µM) | 0.793 | 4.77
HCC-827 (lung adenocarcinoma, adherent, top dose 10 µM) | 0.838 | 8.29
HCT-15 (large intestine, adherent, top dose 10 µM) | 0.917 | > 10
HD-MY-Z (Hodgkin lymphoma, adherent, top dose 10 µM) | 0.912 | > 10
HDLM-2 (Hodgkin lymphoma, suspension, top dose 10 µM) | 0.962 | > 10
HDQ-P1 (breast, adherent, top dose 10 µM) | 0.94 | > 10
HEC-1 (endometrium, adherent, top dose 10 µM) | 0.904 | > 10
HGC-27 (stomach, adherent, top dose 10 µM) | 0.865 | 6.71
HH (T-cell leukaemia, suspension, top dose 10 µM) | 0.871 | > 10
HL-60 (acute myeloid leukaemia, suspension, top dose 10 µM) | 0.859 | 7
HMV-II (melanoma, adherent, top dose 10 µM) | 0.926 | > 10
HN (head and neck, adherent, top dose 10 µM) | 0.855 | 7.23

Cell Line | AUC | IC50 [µM]
HO-1-u-1 (head and neck, adherent, top dose 10 µM) | 0.932 | > 10
HOP-62 (lung adenocarcinoma, adherent, top dose 10 µM) | 0.8 | 4.84
HOP-92 (large cell lung carcinoma, adherent, top dose 10 µM) | 0.716 | 2.85
HOS (osteosarcoma, adherent, top dose 10 µM) | 0.749 | 2.79
HSC-2 (head and neck, adherent, top dose 10 µM) | 0.944 | > 10
HSC-4 (head and neck, adherent, top dose 10 µM) | 0.643 | 1.78
HSC-39 (stomach, suspension, top dose 10 µM) | 0.96 | > 10
HT55 (large intestine, adherent, top dose 10 µM) | 0.973 | > 10
HT (B-cell lymphoma, suspension, top dose 10 µM) | 0.986 | > 10
HT-3 (cervix, adherent, top dose 10 µM) | 0.8 | 4.94
HT-115 (large intestine, adherent, top dose 10 µM) | 0.961 | > 10
HT-1080 (fibrosarcoma, adherent, top dose 10 µM) | 0.873 | 7.89
HT-1197 (bladder, adherent, top dose 10 µM) | 0.933 | > 10
HT-1376 (bladder, adherent, top dose 10 µM) | 0.925 | > 10
HUTU-80 (digestive system, adherent, top dose 10 µM) | 0.919 | > 10
Hep 3B2_1-7 (liver, adherent, top dose 10 µM) | 0.905 | > 10
Hey (ovary, adherent, top dose 10 µM) | 0.918 | > 10
Hs633T (fibrosarcoma, adherent, top dose 10 µM) | 0.805 | 3.98
Hs683 (glioma, adherent, top dose 10 µM) | 0.945 | > 10
Hs746T (stomach, adherent, top dose 10 µM) | 0.868 | > 10
